From paper PMC10907715 come the findings set out here.

Amino acid sequences for entries named in this document (tags omitted). Residues count along the entry.
UniProt P27467, residues 19-352: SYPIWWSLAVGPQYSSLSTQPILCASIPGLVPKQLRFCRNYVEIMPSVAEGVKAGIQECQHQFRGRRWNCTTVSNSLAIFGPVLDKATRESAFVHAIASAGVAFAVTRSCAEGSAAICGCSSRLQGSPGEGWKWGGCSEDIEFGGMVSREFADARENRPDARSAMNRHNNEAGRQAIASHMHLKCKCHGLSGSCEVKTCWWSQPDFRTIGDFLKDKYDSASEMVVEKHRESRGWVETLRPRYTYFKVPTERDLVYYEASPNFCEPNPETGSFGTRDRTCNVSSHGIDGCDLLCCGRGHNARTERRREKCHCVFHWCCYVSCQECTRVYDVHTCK

These are yes or no findings as the source states them, for the method shown. Some results given as binding are weak or reduced against the parent protein; the word gives no strength. For part of these data: Sequences can lack the tags named with a protein.

Assay [1] concerns the target FLAG-GFP-tagged mouse Wnt3a (mouse), P27467. Nature of the assay: AUC; AUC-FDS (fluorescence detection) of the culture supernatant of fluorescent Wnt-expressing cells co-cultured with sFRP-expressing or parental HEK293 cells; FluoroBrite DMEM with 8% FBS, no detergent; 20 °C, 42,000 rpm; c(s) model of SEDFIT. Conditions: remark: other sources report otherwise.
Assay [2] deals with T1, FLAG-mClover-mouse Wnt5a (mouse) (UniProt P22725).
T1 sequence: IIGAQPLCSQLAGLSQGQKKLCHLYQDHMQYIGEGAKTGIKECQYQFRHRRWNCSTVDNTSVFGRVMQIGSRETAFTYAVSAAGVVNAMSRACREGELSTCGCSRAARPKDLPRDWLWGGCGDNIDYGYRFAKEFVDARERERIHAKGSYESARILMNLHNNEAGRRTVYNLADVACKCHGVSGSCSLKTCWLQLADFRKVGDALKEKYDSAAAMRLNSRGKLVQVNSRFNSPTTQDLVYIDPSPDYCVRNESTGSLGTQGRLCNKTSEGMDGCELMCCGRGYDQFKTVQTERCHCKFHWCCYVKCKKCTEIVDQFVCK
Described as above.

For assay [3], the target named is T2, mouse Wnt11-mClover (mouse) (UniProt P48615).
T2 sequence: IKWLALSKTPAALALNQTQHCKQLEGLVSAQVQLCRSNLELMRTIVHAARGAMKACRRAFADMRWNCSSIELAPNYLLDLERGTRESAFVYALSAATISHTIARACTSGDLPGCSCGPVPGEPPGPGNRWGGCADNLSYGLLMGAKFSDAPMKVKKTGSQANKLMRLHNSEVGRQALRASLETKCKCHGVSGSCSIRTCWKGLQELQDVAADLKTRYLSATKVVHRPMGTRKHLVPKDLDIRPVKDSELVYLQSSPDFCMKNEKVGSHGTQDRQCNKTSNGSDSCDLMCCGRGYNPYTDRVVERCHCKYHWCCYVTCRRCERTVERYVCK
Described as above.

The target in assay [4] is FLAG-GFP-tagged mouse Wnt3a (mouse) (UniProt P27467). The assay is described as above.
Assay [5] has the same target. Briefly: AUC; AUC-FDS of GFP-Wnt3a/sFRP2 with or without culture supernatant of cells expressing exFzd8.

B1: mouse sFRP3-FLAG, P97401 33-323 (protein)
chain: AACEPVRIPLCKSLPWNMTKMPNHLHHSTQANAILAMEQFEGLLGTHCSPDLLFFLCAMYAPICTIDFQHEPIKPCKSVCERARQGCEPILIKYRHSWPESLACDELPVYDRGVCISPEAIVTADGADFPMDSSTGHCRGASSERCKCKPVRATQKTYFRNNYNYVIRAKVKEVKMKCHDVTAVVEVKEILKASLVNIPRDTVNLYTTSGCLCPPLTVNEEYVIMGYEDEERSRLLLVEGSIAEKWKDRLGKKVKRWDMKLRHLGLGKTDASDSTQNQKSGRNSNPRPARS
On to B1, for which the binding result in assay [1] is reported as “no binding”.

B2: mouse sFRP3-FLAG (protein, UniProt P97401 33-323)
chain: AACEPVRIPLCKSLPWNMTKMPNHLHHSTQANAILAMEQFEGLLGTHCSPDLLFFLCAMYAPICTIDFQHEPIKPCKSVCERARQGCEPILIKYRHSWPESLACDELPVYDRGVCISPEAIVTADGADFPMDSSTGHCRGASSERCKCKPVRATQKTYFRNNYNYVIRAKVKEVKMKCHDVTAVVEVKEILKASLVNIPRDTVNLYTTSGCLCPPLTVNEEYVIMGYEDEERSRLLLVEGSIAEKWKDRLGKKVKRWDMKLRHLGLGKTDASDSTQNQKSGRNSNPRPARS
Regarding B2, the binding result in assay [2] and in assay [3] was “no binding” in each case.

B3: mouse sFRP4-FLAG, Q9Z1N6 19-351 (protein)
chain: VRGAPCEAVRIPMCRHMPWNITRMPNHLHHSTQENAILAIEQYEELVDVNCSSVLRFFLCAMYAPICTLEFLHDPIKPCKSVCQRARDDCEPLMKMYNHSWPESLACDELPVYDRGVCISPEAIVTDLPEDVKWIDITPDMMVQERSFDADCKRLSPDRCKCKKVKPTLATYLSKNYSYVIHAKIKAVQRSGCNEVTTVVDVKEIFKSLSPIPRTQVPLITNSSCQCPHILPHQDVLIMCYEWRSRMMLLENCLVEKWRDQLSRRSIQWEERLQEQQRTIQDKKQIASRTSRTSRSNPPKSKGRPPAPKPASPKKNIKARSAPKKSNLKKSAS
On to B3, for which the binding result in assay [1] is given as “no binding”.

B4: mouse sFRP4-FLAG (protein, UniProt Q9Z1N6 19-351)
chain: VRGAPCEAVRIPMCRHMPWNITRMPNHLHHSTQENAILAIEQYEELVDVNCSSVLRFFLCAMYAPICTLEFLHDPIKPCKSVCQRARDDCEPLMKMYNHSWPESLACDELPVYDRGVCISPEAIVTDLPEDVKWIDITPDMMVQERSFDADCKRLSPDRCKCKKVKPTLATYLSKNYSYVIHAKIKAVQRSGCNEVTTVVDVKEIFKSLSPIPRTQVPLITNSSCQCPHILPHQDVLIMCYEWRSRMMLLENCLVEKWRDQLSRRSIQWEERLQEQQRTIQDKKQIASRTSRTSRSNPPKSKGRPPAPKPASPKKNIKARSAPKKSNLKKSAS
B4: the binding result in assay [2] and in assay [3] was “no binding” in each case.

B5: afamin (protein, UniProt G3MYZ3 22-604)
chain: LPTQPQDVDDVRITQKFIDDNIGYITIIAFAQYIQEASFEEVEMLVKAMTEYRDKCLADRTLPECSKLANEVLLENICAMEGLPQKYNFSHCCHKVDFERRLCFFHNKKADIGLLPPLPTLDPEEKCQTYKNNRESFLNNYVYEVSRRNPFVFAPTLLTVAARFEEMTKTCCEEQEKANCFQTKAEPFIYYLKALSSYQKNACRALMKFGRQILQSINIAILSQKFPKIGFKQLTSLLEDVSSKYDGCCEGDVVQCIRGRSKVMSHICSKQDSISSKIKDCCEKKIPERGECIIYSNKDDRPNDLSLREAKFIESDNVCEKRDADQANFMAEFLYEYSRRHPELSTPELLRIAKVYKDLLKECCNMENPPECYRHAENRFNETTEKSLKIVQRECEHFQNLGKDDLKYHYLINLTKLAPQLSTEELTFLGKEMVMALTTCCTLSEEFACVDNLVDLVLGELCGINENRNINPAVDHCCKTNFAFRRSCFESLEADKTYVPPSTSQGLFTFHADLCQAHNEELQRKKDRFLVNLVKLKPELAGEELWSLLADFTNVVEKCCKAQEPEACFKEESPKLAAKSQAA
As for B5, the binding result in assay [4] is “binds”.

B6: mouse sFRP2-FLAG (protein, UniProt P97299 25-295)
chain: LFLFGQPDFSYKRSNCKPIPANLQLCHGIEYQNMRLPNLLGHETMKEVLEQAGAWIPLVMKQCHPDTKKFLCSLFAPVCLDDLDETIQPCHSLCVQVKDRCAPVMSAFGFPWPDMLECDRFPQDNDLCIPLASSDHLLPATEEAPKVCEACKTKNEDDNDIMETLCKNDFALKIKVKEITYINRDTKIILETKSKTIYKLNGVSERDLKKSVLWLKDSLQCTCEEMNDINAPYLVMGQKQGGELVITSVKRWQKGQREFKRISRSIRKLQC
Take B6: the binding entry in assay [3] is recorded as “no binding”; in assay [5], “binds”.
